Paper PMC7819943, “Rice protein-binding microarrays: a tool to detect cis-acting elements near promoter regions in rice”
The list shows a part of the results.

target: T1, OsWOX13 (Oryza sativa, UniProt Q5QMM3 1-267); test: protein-binding microarray (RPBM); PBS, 2% BSA, 51.3 ng/ul salmon testes DNA, 50 uM zinc acetate, 200 nM TF, 25 C, 1 h; high values mean tight binding; details: protein: recombinant; tags: N-terminal polyhistidine and DsRed monomer fusion (pET32a); label: CyDye5-dUTP incorporated in the synthesized complementary strand; 3' TTTTT single-stranded linker to array surface; dsDNA, one strand shown
T1 sequence: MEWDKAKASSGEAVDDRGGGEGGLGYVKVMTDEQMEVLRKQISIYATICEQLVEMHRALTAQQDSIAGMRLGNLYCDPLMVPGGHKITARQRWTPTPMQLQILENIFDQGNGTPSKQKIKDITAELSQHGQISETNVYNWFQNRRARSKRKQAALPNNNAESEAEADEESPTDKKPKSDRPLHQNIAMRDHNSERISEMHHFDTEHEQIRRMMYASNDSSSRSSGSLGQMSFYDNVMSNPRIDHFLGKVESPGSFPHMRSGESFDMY
Procedure, shortened: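 The binding signal is fluorescence intensity per feature, in arbitrary units, read on an Axon 4000B scanner. Polyhistidine- and DsRed-tagged transcription factors (N-terminal fusions) from E. coli BL21-CodonPlus were purified on Ni–NTA and applied at 200 nM for 1 h at 25 °C to a double-stranded, BSA-blocked custom Agilent array in buffer with 50 µM zinc acetate.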

First: TAGTCCATTAGCGCGTGATTAATTAAATATTAGCTAATTTCGGAGTCACCTAGTGCAG
Second: AGGGTTGTGATTGGTTGGGAAGAGAATGTTGGTAGATAAGCGGAGTCACCTAGTGCAG
The binding signal of the first is lower: 16900 fluorescence intensity (a.u.) for the first, 32000 fluorescence intensity (a.u.) for the second.

First: AAACTAATTTATGAATATAACTTTTATATACGTATTGTTACGGAGTCACCTAGTGCAG
Second: TGCGAAATTTAGCGTGAGAAATTAAGTGATTGATTGAGAGCGGAGTCACCTAGTGCAG
The binding signal of the first is lower: 15200 fluorescence intensity (a.u.) for the first, 26900 fluorescence intensity (a.u.) for the second.

Compared with “TGATGATTTGAACCGTACAGCCAAGGGTATGCCAGGTGAACGGAGTCACCTAGTGCAG”, “ATAGTCAAATCATCACTATTATAATTCTCATTAATCTTTCCGGAGTCACCTAGTGCAG” is higher in binding signal: 3340 fluorescence intensity (a.u.) for the first, 3970 fluorescence intensity (a.u.) for the second.

Compared with “ATCATGGCGTAATTAGGCTTAAAAGATTCGTCTCGCAATTCGGAGTCACCTAGTGCAG”, “TAAAGTACTAATTTGTAGTAGTATGTATTTCAAATAGTGCCGGAGTCACCTAGTGCAG” is higher in binding signal: 3990 fluorescence intensity (a.u.) for the first, 4040 fluorescence intensity (a.u.) for the second.

First: CTTTTAATTTAATGATGTCCCAGCAGCTTAATTTGAGAGTCGGAGTCACCTAGTGCAG
Second: AGCGCAATTAGACTTAAAAGATTCGTCTCGCAATTTACATCGGAGTCACCTAGTGCAG
The binding signal of the first is higher: 28700 fluorescence intensity (a.u.) for the first, 4020 fluorescence intensity (a.u.) for the second.

Compared with “TAAATAGACAATTTGTGATAGTAATGTGCTCAATAAATCACGGAGTCACCTAGTGCAG”, “ATTGATTGGAAGAGAGGTCAAGTACCCCGAAGGATGGTGACGGAGTCACCTAGTGCAG” is lower in binding signal: 19600 fluorescence intensity (a.u.) for the first, 18100 fluorescence intensity (a.u.) for the second.

Going from “AAAATATAATAATTAGTATAGGATGGGACACATTCTGATACGGAGTCACCTAGTGCAG” to “TTCTATTAAATTCTTCATGATTAATTACAATATCTAGAATCGGAGTCACCTAGTGCAG”, the binding signal falls from 8940 fluorescence intensity (a.u.) to 8070 fluorescence intensity (a.u.).

First: TCAGTGATGATAGTGTCAATAACAATCTTATCCAGCAGCCCGGAGTCACCTAGTGCAG
Second: TCCTCTTGATTTAATTGAGACATCACATATCAACATTGATCGGAGTCACCTAGTGCAG
The binding signal of the first is lower: 4140 fluorescence intensity (a.u.) for the first, 43000 fluorescence intensity (a.u.) for the second.

First: TTTGATATCATGATTTATCGCATATGTTCGTATGTATACGCGGAGTCACCTAGTGCAG
Second: ACACAATCATTTATACAAAGCATATAATGGGCCTGTTCGGCGGAGTCACCTAGTGCAG
The binding signal of the first is higher: 19100 fluorescence intensity (a.u.) for the first, 6100 fluorescence intensity (a.u.) for the second.

Compared with “TAAAATTAGGATATGACAGATTCTTAGTTTTAAAATGTATCGGAGTCACCTAGTGCAG”, “AGTAATTAGAAAATTGCATTTGATTTCTAGGTTTCCTCCACGGAGTCACCTAGTGCAG” is higher in binding signal: 17800 fluorescence intensity (a.u.) for the first, 41900 fluorescence intensity (a.u.) for the second.

First: ATGGATAATTATCCATAACTTATGAGTACCTGGTTTCTTTCGGAGTCACCTAGTGCAG
Second: TGTAATAATTAGCTGTAGCTCTTTGGCTGTGTTTAGATCACGGAGTCACCTAGTGCAG
The binding signal of the first is higher: 34700 fluorescence intensity (a.u.) for the first, 16000 fluorescence intensity (a.u.) for the second.

Going from “GGAAATTATTTCCCTTAGACATTTTCCAAACACTGCGTGTCGGAGTCACCTAGTGCAG” to “TTAATGTTTTGACATGATTTGATCAAGCATTTAAATTTCCCGGAGTCACCTAGTGCAG”, the binding signal falls from 6540 fluorescence intensity (a.u.) to 6070 fluorescence intensity (a.u.).

Going from “TGAAAACATAATTAGTCGTGCATTGTCTGCCCATACCATACGGAGTCACCTAGTGCAG” to “AATGTAATTTCTGGTAAATTTCACTTTTAAGTAAGTTTTACGGAGTCACCTAGTGCAG”, the binding signal falls from 4910 fluorescence intensity (a.u.) to 3780 fluorescence intensity (a.u.).

Going from “ATGATAATGATATTATATTATACTCCCTCCGTTCTAAAATCGGAGTCACCTAGTGCAG” to “ACTTATAATATGTAATTATAATATGAAACGGAGGGAGCATCGGAGTCACCTAGTGCAG”, the binding signal rises from 3390 fluorescence intensity (a.u.) to 13400 fluorescence intensity (a.u.).

Going from “AAATTAAAAGTTTGATTGAAATTGGAACGATGTGACGGAACGGAGTCACCTAGTGCAG” to “ATGAAATTTCACTTTTAATTAGAGGGAGCTCATAGAGAAACGGAGTCACCTAGTGCAG”, the binding signal falls from 33700 fluorescence intensity (a.u.) to 3330 fluorescence intensity (a.u.).

First: GTCCCTGATTAGATCACACAAGATTTGATCGCTATTCGATCGGAGTCACCTAGTGCAG
Second: GGTGGGGCTGTTAGTTAATTATAATGGCTTAATCCAGAGACGGAGTCACCTAGTGCAG
The binding signal of the first is higher: 42400 fluorescence intensity (a.u.) for the first, 10500 fluorescence intensity (a.u.) for the second.

First: CTAATCAATCAAGGCTAATTTAGTGATTAGCATTGAAGTCCGGAGTCACCTAGTGCAG
Second: CGAATCTTGATGGGAAGTTTAGACGGCTGAGATTTCGCGGCGGAGTCACCTAGTGCAG
The binding signal of the first is higher: 34700 fluorescence intensity (a.u.) for the first, 3380 fluorescence intensity (a.u.) for the second.

Going from “CGGATTAGATCATTACAAGGCGTCCAAATCAAAGTGGCGGCGGAGTCACCTAGTGCAG” to “TACACTAGCTAATTGGCTTGATCATTGTTCATCCTAAGAACGGAGTCACCTAGTGCAG”, the binding signal rises from 3930 fluorescence intensity (a.u.) to 13500 fluorescence intensity (a.u.).

Going from “CTGACGATGACAGATTATTGTCGGGCACAGAGCGTAGTACCGGAGTCACCTAGTGCAG” to “GGTTTAAATTTTAAAAGTTTGATCAAATATTATCCTAAACCGGAGTCACCTAGTGCAG”, the binding signal falls from 10500 fluorescence intensity (a.u.) to 4900 fluorescence intensity (a.u.).

Going from “GGACTTTTAATATAATAGATAGATAATATATACATGGTTACGGAGTCACCTAGTGCAG” to “AGATATGTGCCCATAATTAATTAATTAAGTAGATAATATCCGGAGTCACCTAGTGCAG”, the binding signal rises from 5680 fluorescence intensity (a.u.) to 13600 fluorescence intensity (a.u.).

Compared with “AAAATTGACGATTTTCGCAGACGGTCCGCCTGGGAAGATTCGGAGTCACCTAGTGCAG”, “ACTTCATTGACGGTTTGACACTAATCCTAACATTCACATTCGGAGTCACCTAGTGCAG” is lower in binding signal: 20100 fluorescence intensity (a.u.) for the first, 6430 fluorescence intensity (a.u.) for the second.
